Data on 72 sequences can be found in article PMC10726135.

The other results are listed elsewhere or left out. At the low end of the ranking the order means little. Measured with an extract: partners may take part in the binding.

In this assay the target is T1, HNF4alpha8 (COS-7 nuclear extract) (UniProt P41235-5).
T1 sequence: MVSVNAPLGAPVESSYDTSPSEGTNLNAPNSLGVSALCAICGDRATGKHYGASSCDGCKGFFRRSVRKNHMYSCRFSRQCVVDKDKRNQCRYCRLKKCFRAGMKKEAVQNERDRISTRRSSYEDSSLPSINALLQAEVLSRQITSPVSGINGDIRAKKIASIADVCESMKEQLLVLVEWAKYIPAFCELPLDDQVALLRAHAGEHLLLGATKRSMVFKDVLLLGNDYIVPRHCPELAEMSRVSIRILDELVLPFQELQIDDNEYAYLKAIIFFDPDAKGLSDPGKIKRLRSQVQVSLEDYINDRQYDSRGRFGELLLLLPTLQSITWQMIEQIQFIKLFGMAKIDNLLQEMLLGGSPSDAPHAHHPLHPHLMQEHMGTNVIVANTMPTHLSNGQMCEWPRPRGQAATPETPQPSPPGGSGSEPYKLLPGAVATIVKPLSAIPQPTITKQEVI
As to the kind of experiment: protein-binding microarray. Conditions: COS-7 nuclear extract on double-stranded Agilent 4x180k PBM; binding buffer, salt, pH and temperature not given; high values mean tight binding; double strand, one strand shown; sequences stand for … in …GCCTAGGGAGATTAGAGTATCGGTCGA
As to GAGCCTGGACACACGAATAATGGAGCTGAT, the binding signal (log2 normalized intensity) was -1.14.

In the case of CAGGCCCTTCTACATGAGGAGTGAGAACAG, the binding signal (log2 normalized intensity) was -1.31.

GGATTAAGTGCATACTCAAAGAATTTAACA: the binding signal (log2 normalized intensity) is -1.5.

In the case of CTTATGCATAGATGTTTAGCTATCAGTGTT, the binding signal (log2 normalized intensity) is 0.941.

TGTAGATAAACTGGAAAGGGCTTCAGAGTC: the binding signal (log2 normalized intensity) is -1.28.

Turning to TCCAAAGGAGTGGTCCTGCTCAAAGGGGAA, the binding signal (log2 normalized intensity) is -0.986.

For the sequence GTTTGCACAAAGGGTTATGGGAAGTGGGGT, the binding signal (log2 normalized intensity) is -0.134.

For the sequence TGCCAAGTGATAAGGAACCTAGGAAATCAA, the binding signal (log2 normalized intensity) was -0.864.

On to ATTCAAAGCAGAGGTGACCCTTGCACTCAT, for which the binding signal (log2 normalized intensity) came to 6.82.

Consider GTCTGCTATTATCATCTCTTGTCTGGAATA, for which the binding signal (log2 normalized intensity) was 0.938.

GAGAAGTTGCTCTTTACACCATTGCAAGGA: the binding signal (log2 normalized intensity) is -0.0322.

AGCAATACATTGAACTTTGAACACCTCTTC: the binding signal (log2 normalized intensity) came out at 6.54.

On to GTGGGAGGATCGCTTGAGCCTGGGAGGCAA, for which the binding signal (log2 normalized intensity) is -1.33.

As for CTTTGCCCTCCCTAAATCCAGAGGTATTTG, the binding signal (log2 normalized intensity) was determined as 2.04.

For the sequence GCCAGCAACGGTGAGTCAAGCACTTCTCAC, the binding signal (log2 normalized intensity) is -1.3.

On to GTTTTTCTTCAAGGAGGTGAACTTTGAGAC, for which the binding signal (log2 normalized intensity) turned out to be 6.87.

For the sequence CAAAACCAGTTTTTCCAGCAGCGGATCCAA, the binding signal (log2 normalized intensity) was -1.29.

Turning to TTTCTCAGCCCCATCCCCCAATACACACAC, the binding signal (log2 normalized intensity) came to 5.03.

Turning to CTTAAATGAGATAAGATGAAGCTCTCAGAA, the binding signal (log2 normalized intensity) is -1.2.

With AACATGGATTTTGGAGCCAAACAGGTGTGG, the binding signal (log2 normalized intensity) was -0.156.

Turning to AGAACTGTTAACTTTGTACTCAATTTGGAT, the binding signal (log2 normalized intensity) amounted to 1.76.

Consider AAGGACAAAGGTCAACAAACGCCCCTTGGA, for which the binding signal (log2 normalized intensity) amounted to 5.61.

As for GTAGGCGTATGCTGTACAGATCTCTACGAC, the binding signal (log2 normalized intensity) is -1.36.

Consider AATCTCTCAAGTTGCCCGCTTGGCCCTCTT, for which the binding signal (log2 normalized intensity) came out at 1.65.

As to TAAACCCGATCCTTACTATTAGGTCTTTGA, the binding signal (log2 normalized intensity) was found to be 1.45.

In the case of AACTGTCACAAGAAAGGCAGAAAACTCAGA, the binding signal (log2 normalized intensity) is -1.07.

With CAGTATTAATGTCAAACTGATCAGAAGTGG, the binding signal (log2 normalized intensity) was 1.37.

For AGCACATCACACAGGCATATTTGGTTAGCT, the binding signal (log2 normalized intensity) is -1.31.

Regarding GTTGGGCAAGACTCGTGAAAAGAGTGATCT, the binding signal (log2 normalized intensity) was 0.26.

Take CCTTAAGAGCAGTCTGCTCAAGTCTTTTAG: the binding signal (log2 normalized intensity) is -1.36.

As for GATAAGAACTGCAAGGCTAGAGATTCTCCC, the binding signal (log2 normalized intensity) was -1.22.

In the case of AAGGGAACCCTAATCCACATGCTATTATTT, the binding signal (log2 normalized intensity) was -1.27.

Regarding TTGCTTATAGCTCAAAGTCCACCAACTCTG, the binding signal (log2 normalized intensity) is 4.87.

For the sequence CAGAGACCTTTGCTCACGTTTTCCTGCTGA, the binding signal (log2 normalized intensity) was found to be 1.71.

Regarding GTAATTAATCTGATCGCCCTCCCCCAGAGA, the binding signal (log2 normalized intensity) is 5.03.

Turning to TGATTAGAACATTAAGTCCAAATGCTGGTT, the binding signal (log2 normalized intensity) was determined as 1.39.

As to TTAGACAGTGCTTCCAAAGGACAGGGTTTC, the binding signal (log2 normalized intensity) was 0.273.

On to CCTTTGCCCTCCAAACTGAGAGATTTTTTC, for which the binding signal (log2 normalized intensity) turned out to be 1.05.

With TTTCTGGGATTTGTACAAGTGATTGGATCT, the binding signal (log2 normalized intensity) is 1.7.

Consider GAGCTTTTACCTCAAATAAAGGTCAGAGTC, for which the binding signal (log2 normalized intensity) came out at 2.66.

Consider ATCTATTATTAGGTACAAACATACTTAGGA, for which the binding signal (log2 normalized intensity) is 0.835.

With TCCTGTAGAATGACCCCCTGGGCTCCAATC, the binding signal (log2 normalized intensity) came out at 3.77.

In the case of TCTCTCTCTCTCGTTTTTTTTTTCCCTGAG, the binding signal (log2 normalized intensity) amounted to 1.65.

For ATGATGGCCAGGGAGTACACCCCTCACTCC, the binding signal (log2 normalized intensity) was 0.221.

On to GGCATTATTAGCCACAACTGAGTATTTAGC, for which the binding signal (log2 normalized intensity) was -1.37.

CAAATACCATCCCCAGAGCCGGAGCACCAC: the binding signal (log2 normalized intensity) is 1.5.

In the case of GATAAGAGGCAGTCCTGGCTTGGCCACCTA, the binding signal (log2 normalized intensity) was -1.35.

For TTCCTGCACCCGGGCAGCCTGTGGCCAGGC, the binding signal (log2 normalized intensity) is -1.36.

As for CTTTTTGATCTTGTCACATTTCAAAAGCTG, the binding signal (log2 normalized intensity) was -1.34.

With TGCCTGGAGAGCTAGTAAGGAGCTGAGTCA, the binding signal (log2 normalized intensity) is -1.4.

Consider TCCTTGGCTCTCCCCACTTACTTCCTGATA, for which the binding signal (log2 normalized intensity) is 0.269.

In the case of GATTACTTGGCACTTAGCACAAGTGACTAT, the binding signal (log2 normalized intensity) was -1.29.

On to ATCTGCAGGGCAGCAGACTCAGAAAAATAT, for which the binding signal (log2 normalized intensity) was -1.33.

As for CCACTCTTTTTTAGACTTTGACCTCCATAT, the binding signal (log2 normalized intensity) came out at 8.93.

For the sequence TGAATTTAACCTTTGCTCTCTGAAATGAAG, the binding signal (log2 normalized intensity) was 5.77.

Consider CTGCTTTGGTTAATCATTAGAGATGTTCAA, for which the binding signal (log2 normalized intensity) was found to be 0.234.

Take AAGAACAGCTTTGGTATTACATTACAACCA: the binding signal (log2 normalized intensity) was -1.32.

As to AATTTGTCTTTTCTCCCCCGATAAGGCTGC, the binding signal (log2 normalized intensity) came to 4.01.

With ACTTTAACCTTTAGATTACTAGGAATTGAT, the binding signal (log2 normalized intensity) was 1.53.

For the sequence CCACCCTCACAGCTCAATCCAACAAATAGA, the binding signal (log2 normalized intensity) is -1.39.

For the sequence GAAATATGTAGGTTTGGGGAACTTTGCACT, the binding signal (log2 normalized intensity) amounted to 4.4.

With CTTTGGCCAAGGGCAGTGTTTGCCCAGCTT, the binding signal (log2 normalized intensity) was 0.731.

For the sequence GAGAGCAAACTTCAAAGAAGCTGTTGGAAA, the binding signal (log2 normalized intensity) was -1.37.

On to TGGTCCTTCAAGTGTGACCCTGAACCTACA, for which the binding signal (log2 normalized intensity) came to 3.06.

As to GAGTGTGACTGTGGTACTCCAAAGGTCAGT, the binding signal (log2 normalized intensity) was 5.29.

For CTTAGCAAATATTTACTGAATGAATGTCCA, the binding signal (log2 normalized intensity) stood at 1.2.

Turning to TGTGTTCCACAGTCAAGGCCAAAGGTTAAA, the binding signal (log2 normalized intensity) came to 5.96.

With GCCCTCCCCCAGAGAGAACAGTCCTACAAA, the binding signal (log2 normalized intensity) turned out to be 2.92.

Take CTGCCCAGACACACAATATTATGTTTTGTT: the binding signal (log2 normalized intensity) is 0.868.

In the case of TGATTATTTGTGAAGGCATTATTGGTGAAA, the binding signal (log2 normalized intensity) was 0.974.

Consider AAGCAGAAGGAGGAGGAGGTTCCTGGAACT, for which the binding signal (log2 normalized intensity) is -1.21.

GCACAGAAGGAGAGAGAGGGAGAGTGGCCT: the binding signal (log2 normalized intensity) is -1.21.
